# Source: PubChem BioAssay AID1508642 (National Center for Advancing Translational Sciences (NCATS), 2021)
# About 200 (0.47%) of roughly 43,000 compounds were called active. Not shown: some 12% with an inconclusive outcome. The call rests on the fitted dose curve; in most records, active means well fitted cell-killing curve with a large enough effect; inconclusive means small, poorly fitted or top-dose-only effect, or effect the other way; inactive means flat fitted curve, though single readings scatter. The list shows a part of the results.
# Assay: Cell viability qHTS assay in S16 Pmp22-F2sN cells; further: nearly all actives have a fitted effect of over 65% in size
# Details: S16 Pmp22-F2sN Schwann cells (luciferase reporters placed in the Pmp22 gene) viability, CellTiter-Glo, 24 h; series mostly up to 57.5 µM; activity change, negative = cytotoxicity: at the top concentration
# Procedure, shortened: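 Luminescence from CellTiter-Glo, read by CCD camera after a 15 min room-temperature incubation, served as the viability signal. Reporter Schwann cells (S16 Pmp22-F2sN) had been treated with pin-transferred compounds for 24 h at 37C.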
# On the % scale 0 is the no-effect control and ±100 the full control effect.
row,SMILES,"activity change, negative = cytotoxicity"
1,CCOC(=O)c1cccc(NS(=O)(=O)c2ccc3[nH]c4c(c3c2)CCCC4)c1,inactive: -23.2%
2,CCCCc1ccc(-n2nc3cc(Cl)c(NC(=O)c4ccc(OC)cc4)cc3n2)cc1,inactive: 7.38%
3,Cc1ccc(-n2cnc3cc(C(=O)NCc4ccc(F)cc4)ccc32)c(C)c1,inactive: 20.6%
4,Cc1ccc(NC(=O)CN2CCN(c3ccccc3F)CC2)cc1F,inactive: -0.535%
5,Cc1ccc(NC(=O)c2ccc(Cl)cc2Cl)c(C(=O)c2ccccc2)c1,inactive: -4.2%
6,CCOc1ccc(-c2cc3c(=O)n(Cc4nc(-c5ccccc5OCC)oc4C)ccn3n2)cc1Cl,inactive: 9.83%
7,O=S(=O)(NCc1ccc(Cl)cc1)c1ccc2[nH]c3c(c2c1)CCCC3,inactive: -1.49%
8,Cc1ccc(Cn2c(C)c(CNCC(C)c3ccccc3)c(C(=O)O)c2C)cc1 (configuration not stated),inactive: 0.651%
9,CCC(CC)C(=O)Nc1ccccc1SCc1cc(=O)c2cccc(C)c2[nH]1,inactive: -18%
10,COCCCNC(=O)C1CCC(Cn2c(=O)c3sccc3n(C)c2=O)CC1 (configuration not stated),inactive: 7.11%
11,Cc1nc2cccnc2n1C1CCN(C(=O)Nc2ccccc2)CC1,inactive: -0.397%
12,Cc1cc(C)cc(N2CC(c3nnc(NC(=O)c4ccco4)s3)CC2=O)c1 (configuration not stated),inactive: 1.34%
13,COc1cc(C(=O)Nc2ccc(-n3c(C)nc4ccccc4c3=O)cc2)cc(OC)c1OC,inactive: -23.8%
14,O=c1c(=O)n(-c2ccccc2)ccn1Cc1c(F)cccc1Cl,inactive: -0.212%
15,CCOc1cccc(NC(=O)c2sc3nc(-c4ccc(F)cc4)ccc3c2N)c1,inactive: 5.16%
16,COc1cc(CNCCSc2nnnn2C)ccc1OCc1ccc(C)cc1,inactive: -0.323%
17,CCSc1ncc(Cl)c(C(=O)N(Cc2ccccc2)c2ccc(OC)cc2)n1,inactive: -17.5%
18,O=C(COCc1cc(-c2cccs2)on1)N1CCN(c2ccc(F)cc2)CC1,inactive: 3.11%
19,CCOC(=O)C1CCN(C(c2ccc(OCC)cc2)c2c(O)cc(C)n(CCOC)c2=O)CC1 (configuration not stated),inactive: -2.95%
20,COc1ccc(CNS(=O)(=O)c2cc(Br)cc3c2N(C(C)=O)C(C)C3)cc1 (configuration not stated),inactive: 5.91%
21,O=C(NCc1cccc(F)c1)c1ccc(CN2CC(=O)N3CCCCC3C2=O)cc1 (configuration not stated),inactive: 8.16%
22,O=c1c2oc3ccccc3c2n(Cc2ccc(F)cc2)c(=O)n1Cc1ccco1,inactive: -3.45%
23,CCCCn1c(=NC(=O)c2c(-c3c(F)cccc3Cl)noc2C)c(C(=O)OCC)cc2c(=O)n3ccccc3nc21,inactive: -0.877%
24,Cc1ccc(-c2noc(-c3ccc(NCc4cccnc4)c([N+](=O)[O-])c3)n2)cc1,inactive: -3.56%
25,Cc1c(C(=O)OCc2ccccc2)[nH]c2c1C(=O)CC(c1ccc(N(C)C)cc1)C2 (configuration not stated),inactive: -4.35%
26,COc1ccc(NC(=O)CN2C(=O)C(C)(C)c3cc(S(=O)(=O)N4CCCCC4)ccc32)cc1Cl,inactive: -1.57%
27,Cc1nn2c3c(cnc2c1-c1ccc(Cl)cc1)C(=O)CC(c1ccc(C(C)C)cc1)C3 (configuration not stated),inactive: 1.67%
